Assay results taken from PubChem BioAssay AID360 (National Center for Advancing Translational Sciences (NCATS), 2006).
The whole screen tested about 48,000 compounds, of which about 550 (1.1%) were called active. Inconclusive results (about 4%) are left out. No stated cut-off is given here; in the data, active means potency below about 15 µM; inconclusive means mostly about 16 µM to 33 µM; inactive means weaker than that. This is one part of the list.

Target: Lysosomal acid glucosylceramidase (Homo sapiens) (UniProt P04062)
Test: Glucocerebrosidase;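 further: the screen sought inhibitors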
Conditions: purified enzyme, resorufin glucoside fluorescence (screen aimed at inhibitors), 20 min
Outline: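 Compounds titrated against 0.2 nM normal enzyme, 30 uM resorufin beta-D-glucopyranoside substrate, citrate/phosphate buffer with taurocholate and tween-20, pH 5.9. Reaction ran 20 min at room temperature; fluorescence (Ex 548/Em 600) gave AC50.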
Potency means the concentration at half of the fitted maximal effect.

Sequence of UniProt P04062 (P04062 whole entry, looked up): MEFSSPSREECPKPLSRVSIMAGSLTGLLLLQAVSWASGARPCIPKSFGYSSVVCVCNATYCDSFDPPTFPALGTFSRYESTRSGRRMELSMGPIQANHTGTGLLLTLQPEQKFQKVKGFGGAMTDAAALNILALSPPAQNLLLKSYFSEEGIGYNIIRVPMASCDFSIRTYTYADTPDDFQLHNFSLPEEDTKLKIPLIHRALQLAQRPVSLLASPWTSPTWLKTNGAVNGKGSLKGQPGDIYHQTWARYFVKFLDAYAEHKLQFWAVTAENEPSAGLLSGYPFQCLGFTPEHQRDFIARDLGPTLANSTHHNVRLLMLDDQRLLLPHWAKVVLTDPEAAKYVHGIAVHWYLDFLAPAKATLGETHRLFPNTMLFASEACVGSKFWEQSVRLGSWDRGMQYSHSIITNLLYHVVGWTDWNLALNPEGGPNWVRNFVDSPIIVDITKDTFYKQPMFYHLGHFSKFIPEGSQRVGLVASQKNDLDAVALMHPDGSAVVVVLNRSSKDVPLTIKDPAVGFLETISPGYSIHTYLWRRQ

Potency, inactive:
CSc1ccccc1NC(=O)c1ccoc1C > 76.9 µM
CC(C)(Oc1ccc(Cl)cc1)C(=O)NC1CCSC1=O (centres undefined) > 76.9 µM
O=C(O)CC(NS(=O)(=O)c1ccc(Br)cc1)c1ccco1 (centres undefined) > 76.9 µM
CC1(C)CC(NC(=O)c2ccccc2Cl)CC(C)(C)N1 > 76.9 µM
O=C(c1ccc(Cl)s1)N1CCOCC1 > 76.9 µM
O=C(NCc1ccco1)c1cc2ccc(O)cc2oc1=O > 76.9 µM
CC1CN(C(=O)C2CCCN2S(=O)(=O)c2ccc(Cl)cc2)CC(C)O1 (centres undefined) > 76.9 µM
O=C(Nc1nsc(-c2ccccc2)n1)c1ccncc1 > 76.9 µM
Cc1ccc(CCNC(=O)C2CCN(C(=O)c3sccc3-n3cccc3)CC2)cc1 > 76.9 µM
Cc1ccc(-n2ncc3c(N4CCN(c5ccc(F)cc5)CC4)ncnc32)c(C)c1 > 76.9 µM
CCOC(=O)c1c(NC(=O)Cc2cccs2)sc(C(=O)N2CCCCC2)c1C > 76.9 µM
COc1ccc2c(c1)c1c3n2CCN(C)C3=NCC1 > 76.9 µM
CCCCc1c(O)nc(N2CCN(Cc3ccccc3)CC2)[nH]c1=O > 76.9 µM
CN(C)/C=c1\sc2c(C#N)cc(C(=O)c3ccc(Br)cc3)n2c1=O > 76.9 µM
CCN(CC)C(=O)CSc1nnc(-c2cnccn2)n1-c1ccccc1 > 76.9 µM
Cc1nnc(NCCN2CCOCC2)[nH]c1=O > 76.9 µM
COc1ccc(-c2nc3oc4cc(OC)ccc4c(=O)c3c(=O)n2Cc2ccco2)cc1 > 76.9 µM
Cc1cc2n(n1)C(c1ccccc1)Nc1ccccc1-2 (centres undefined) > 76.9 µM
CCOC(=O)N1CCN(CC(O)COC2CC(C)CC(C)(C)C2)CC1 (centres undefined) > 76.9 µM
CC(=O)OC[C@H]1O[C@@H](n2ccc(=O)[nH]c2=S)C(OC(C)=O)C1OC(C)=O (some centres undefined) > 76.9 µM
Cc1ccc(S(=O)(=O)NC2=NCN(CCc3ccccc3)CN2)cc1 > 76.9 µM
c1ccc2sc(Cc3nnc4n3CCCCC4)nc2c1 > 76.9 µM
COc1cc2c(cc1NC(=O)c1cccnc1)CCCC2 > 76.9 µM
CSc1nc(SCC(=O)NCc2ccco2)c2c3c(sc2n1)COC(C)(C)C3 > 76.9 µM
O=C(CCCN1C(=O)c2ccccc2C1=O)NC1=NCCS1 > 76.9 µM
N#Cc1c(NC(=O)CSc2ncn[nH]2)sc2c1CCCCC2 > 76.9 µM
CCc1nnc(NC(=O)c2cccc(S(=O)(=O)N3CCc4ccccc43)c2)s1 > 76.9 µM
O=C(NCC1CCCO1)c1cc2n(n1)C(C(F)(F)F)CC(c1ccc(Br)cc1)N2 (centres undefined) > 76.9 µM
COC(=O)c1cc(Cl)c(N)cc1OC > 76.9 µM
O=C(OC(C(=O)NCC1CCCO1)c1ccccn1)c1cccs1 (centres undefined) > 76.9 µM
CCN(C(=O)c1c(-c2ccccc2)noc1C)c1ccccc1 > 76.9 µM
CCc1cc2c(C)cc(=O)oc2cc1OC(=O)C1CCCN1C(=O)OC(C)(C)C (centres undefined) > 76.9 µM
Cc1nc2ccccc2n1CCc1nc2c3ccccc3nc(SCC(=O)NCc3ccco3)n2n1 > 76.9 µM
O=C(COC(=O)c1cccs1)NC1CCCCC1 > 76.9 µM
COc1cc(NC(=O)c2ccc(COCC(F)(F)F)o2)cc(OC)c1OC > 76.9 µM
CC(=O)N=c1sc2cc(C)ccc2n1C > 76.9 µM
CCCCN1c2cc(C)c(O)cc2C(C(=O)OCC)C1C (centres undefined) > 76.9 µM
Cc1cc(NS(=O)(=O)c2ccc(NC(=O)NC3CCCCC3)cc2)no1 > 76.9 µM
O=C(CN1CCCC1)N1c2ccccc2Sc2ccccc21 > 76.9 µM
C=CCOC(=O)C(C#N)c1nc2ccccc2nc1N1CCN(c2ccccc2OC)CC1 (centres undefined) > 76.9 µM
N#Cc1c(N)oc(-c2ccco2)c1-c1ccco1 > 76.9 µM
COc1ccc(-c2nnc(SCC(=O)N3CCCC(C)C3)o2)c(OC)c1 (centres undefined) > 76.9 µM
CCn1c(SCC(=O)Nc2nccs2)nnc1-c1ccc(S(=O)(=O)N2CCCCC2)cc1 > 76.9 µM
Cc1nn(-c2ccccn2)c(C)c1Oc1ccccc1O > 76.9 µM
CC(Cc1cccs1)NC(=O)NC1CCCCC1 (centres undefined) > 76.9 µM
CCOC(=O)CCc1c(C)nc(SCC(=O)O)c(C#N)c1C > 76.9 µM
COC(=O)c1ccc2ncccc2c1 > 76.9 µM
CCC(=O)N1CCc2cc(Br)cc(S(=O)(=O)NCC3CCCO3)c21 (centres undefined) > 76.9 µM
O=C(NC1CCCCC1)N1CCC(c2nc3ccc(Cl)cc3[nH]2)CC1
COCCN1Cc2c(sc(C)c2C)N(C(=O)c2ccccc2)C1 > 76.9 µM
CCn1nc(C(=O)N2CCc3ccccc3C2)c2ccccc2c1=O > 76.9 µM
COCCCn1c(=N)c(C(=O)NCc2ccc3c(c2)OCO3)cc2c(=O)n3ccccc3nc21 > 76.9 µM
CSCCNC(=O)c1ccc(C(C)(C)C)cc1 > 76.9 µM
CCCOC(=O)CCCCC1SCC(NC(=O)OC)C1NC(=O)OC (centres undefined) > 76.9 µM
O=C1OC(N2CCN(Cc3ccccc3)CC2)c2ccccc21 (centres undefined) > 76.9 µM
COC(=O)c1cc(NC(=O)c2ccc(Cn3cc(Cl)cn3)o2)cc(C(=O)OC)c1 > 76.9 µM
Cn1nnnc1SCCOc1ccc(C#N)cc1 > 76.9 µM
CCOC(=O)C1CCCN(c2ccc(NC(=O)c3snc4c(=O)[nH]cnc34)cc2)C1 (centres undefined) > 76.9 µM
O=C(Nc1cccc2cccnc12)c1cccc(N2C(=O)CCC2=O)c1 > 76.9 µM
CCCn1nc(NC(=O)c2ccco2)c2cc3ccc(C)cc3nc21 > 76.9 µM
O=C(C1CCN(S(=O)(=O)c2ccc(Br)s2)CC1)N1CCc2ccccc21 > 76.9 µM
COc1ccccc1N1CCN(C(=O)c2cn(-c3ccccc3)nc2-c2cccnc2)CC1 > 76.9 µM
O=C(CSc1nnc(Cc2ccccc2)n1-c1ccc(F)cc1)N1CCOCC1 > 76.9 µM
COc1cccc(-c2nnn(CC(=O)O)n2)c1 > 76.9 µM
Cc1nn(C)c(N)c1C(O)(c1nccn1C)C(F)(F)F (centres undefined) > 76.9 µM
CCn1cc(C(=O)NC2CC3CCC2C3)c(=O)c2ccc(C)nc21 (centres undefined)
COc1ccc(-c2cc(C(F)F)nc(-n3nc(C)cc3C)n2)cc1 > 76.9 µM
COc1ccc(CNC(=O)C2CCN(S(=O)(=O)c3c(C)n[nH]c3C)CC2)cc1 > 76.9 µM
CCOC(=O)CCNC(=O)Nc1ccc2nc(C)n(Cc3ccccc3Cl)c(=O)c2c1 > 76.9 µM
O=c1[nH]c2sc3c(c2c2nncn12)CCCC3
CC(C)(C#N)NC(=O)c1ccco1 > 76.9 µM
COC(=O)CSc1nnc(-c2ccc(S(=O)(=O)N3CCCCC3)cc2)o1 > 76.9 µM
CCCn1nnc(NC(=O)c2ccco2)n1 > 76.9 µM
CC1CCc2nc(NCCO)nc(C(F)(F)F)c2C1 (centres undefined) > 76.9 µM
Cc1ccc(NC(=O)NCCCN2CCOCC2)cc1 > 76.9 µM
Cc1noc(C)c1CSc1nnc(-c2ccncc2)n1-c1cccc(Cl)c1C > 76.9 µM
O=S(=O)(c1ccc(-n2cnnn2)cc1)N(C1CCCCC1)C1CCCCC1
Cc1ccc(OCCCn2c(CO)nc3ccccc32)cc1 > 76.9 µM
Cc1occc1C(=O)Nc1sc2c(c1C(N)=O)CCCCC2 > 76.9 µM
CCOC(=O)c1c(NC(=O)CSc2nnc(-c3cccnc3)n2Cc2ccco2)sc(C)c1C > 76.9 µM
Cc1ccc(OCC(=O)Nc2ccc(-c3nc4ncccc4o3)cc2)cc1 > 76.9 µM
COc1ccc(CCNC(=O)CSc2nnc(-c3cccc(C)c3)o2)cc1OC > 76.9 µM
CCCc1nc(-c2cc3ccc(C)cc3[nH]c2=O)no1 > 76.9 µM
Nn1c(CN2CCCCC2)nc2ccccc2c1=O > 76.9 µM
C=CCn1c(CCNC(=O)C(C)(C)C)nc2ccccc21 > 76.9 µM
COc1cccc(NC(=O)Nc2cc(C)ccc2F)c1 > 76.9 µM
CCOC(=O)c1cnn(-c2ncnc3sc4c(c23)CCC4)c1N > 76.9 µM
CCOC(=O)c1nc(NCc2cccnc2)c2ccccc2n1 > 76.9 µM
CCOCC(=O)Nc1ccc(-c2cn3cccnc3n2)cc1 > 76.9 µM
CN1CCN(C(=S)c2ccc(N(C)C)cc2)CC1 > 76.9 µM
O=C(CSc1ncnc2c1cnn2-c1ccccc1)Nc1ccccc1 > 76.9 µM
FC(F)(F)c1ccc(Sc2nnc(-c3cccs3)n2CC2CCCO2)nc1 (centres undefined) > 76.9 µM
O=S(=O)(c1ccccc1)c1nc(-c2ccccc2)oc1NCc1cccnc1 > 76.9 µM
CCOc1ncccc1C(=O)OCCN1C(=O)c2ccccc2C1=O > 76.9 µM
